# According to the RNAGym collection of RNA variant scans (doi:10.7554/elife.90254):
# Read counts are not given, so values of variants with three or more changes are uncertain.
# B1: LINE1-full (parent)
# chain: UACGUAGGUGGUUUUCCCCUGAUAGUGCUAAGGGGGCCUGGAAGUUUGGACUGGGCAGAGCUCAACACAGCGUGGCAAAGUGGCUGUGGCUAGACUGCCUCUCUGGAUUCCUCGUCACUCAGCAGGGCAUCUCUGAGAGAAAUGCC
# Variants of: B1
# Assay: self-cleavage, relative activity (ratio to wild type); higher = more cleavage; in vitro, sequencing; the parent is a self-cleaving ribozyme
row,Variant,self-cleavage
1,U13C A30G A67G G127C,0
2,U12G U85G U100C,0.61
3,U12C U52A G55U,0.6
4,U13A U14A U29C A57U U96A U119A U134C,1.06
5,U12C U47A U62C U85C U115C,0
6,U13A A42G A65G U81A,0.02
7,U12G U20C U62C A67U C120U U134C,0.1
8,U12G A57U A67U A77G C131U,0.13
9,U12G A124U U132C U143A,1.44
10,U13A A42G A78G U85C U100A,0.27
11,U12G U15C U39C A79U A92G G126U U134C A141G,0.72
12,U13A G27A A78U,1.02
13,U12G U15C A77G A121C G139A,1.7
14,U13A U47C A78G A121G,2.3
15,U12G U52C C98U,0
16,U13C A65C U73A,0.15
17,U13C A77G A129C,2.38
18,U13C A31G G48A U62G U81C,0.56
19,U12G G36A A140C,1.11
20,U13A C18U A22G C131G,0.24
21,U12C U85C A94G,0.66

row,Variant,self-cleavage
1,U13C A64U U96C C116A,0.09
2,U12G A59G A117G,0.32
3,U12C U52A A64G,0.36
4,U12G U73A A77U G88A U100C U104C U134C,0
5,U12C U46C A107G,1.2
6,U12C U52A A129U U132C,1.95
7,U13C A42U U47C U100C C123U A138G,1.53
8,U12C U39C U47A U96A,0.08
9,U13A A57G A124G,0.24
10,U12G U14C A43G U46C U91A,0
11,U12C U47C A140G,2.8
12,U12G A64U U115C,0.66
13,U12G U39A G53A,0.68
14,U13C A24U A59G,0.24
15,U13A U39A U46A U119C A140G,1.8
16,U12C U47A U91C U134A,0.67
17,U12G U112C U134A A141G,1.48
18,U12G A79G A121G A124U,2.45
19,U13A A94G U104A,0.43
20,U13C A24U U100A,0.4
21,U12G U15C C19U G34U,1.1

row,Variant,self-cleavage
1,U12G A22G A78U A92G A124G,0
2,U13C A24G U104C,0
3,U13A A107G A142G,1.28
4,U12G A42G A50U U81A A94G A117G U134A,0
5,U13C A78G U108A U112C,1.5
6,U12G U15C A59G U109A A117U U130C,0.49
7,U13C A31U A140G,2.13
8,U12G U85C U119C,0
9,U12G A31G A65G,0.51
10,U13A U39A U81G U115C A138G,1.38
11,U12G U20C U26C,1.62
12,U12C U45C G60A A136U,0.05
13,U12C U52G A142G,1.41
14,U12G U115C U134C U143A,0.9
15,U12G A67U A78U U87C,0.24
16,U12C U102C U119C A124U A142G,2.87
17,U12G U47C G75A A129G,0.57
18,U13C A42G U52C,1.4
19,U13A A64G A78G U100C,0
20,U13C A57U U85C U96A,0.16
21,U13C A65U A140G,0.16

row,Variant,self-cleavage
1,U12G U14C A69G G70A U73C A124G,0
2,U13C A42G C111G,1.79
3,U12G A129U A138G,1.47
4,U12G U26A U112C A138U,0.91
5,U13A A31U U52A U85A A117G U119C U130C G137U,0
6,U12C U62C A69U A124G A141G,0.06
7,U13C A65G U85C U102C A138G,0.84
8,U12C U112C U143C C145U,0.76
9,U12C U119C A138G A142G,2.14
10,U12G A69U A107G,0
11,U12G U15C G88A U104A,0.29
12,U12C U52A A59G A92G,0
13,U13C A43G U112C,0.57
14,U12G A57G A124U,0.84
15,U13C A24G A65G,0
16,U12G G89U G126A,0.02
17,U12G U29A A124G,0.6
18,U13C A57G U102C,0.16
19,U13C A64U A140G,1.09
20,U12G U96A U130C,0.5
